For 22 molecules, binding signal results are on record in publication PMC12136788.

The labels stand for the following.
B1: chr7:140404665:140404666:+_ENSG00000090266_ENST00000247866|hu_hu|hu_hu_hu_mus_False|18_108 (ssRNA)
RNA: GGGAGUUCUACAGUCCGACGAUCUGCGUACAGAGUGCCAGAGAGUUUACAGUGUCAGUCCUCGUCAUCAGGAGGGAUUCCCAGUUCUUCAUCUGUCCACUGUGAAGGAUCUGGAUACGGAAAGUGACCCAGCACAGCAUCCGACAACAGAGGAUUGAGCAUCA
B2: chr6:160100356:160100357:-_ENSG00000112096_ENST00000546260|hu_hu|motif|central (ssRNA)
RNA: GGGAGUUCUACAGUCCGACGAUCGCUGGGAUCAUUAGGGUAUGACUGAAAGUGAGAAACAGUAAUUUGUAAAACAUUUACCGGAUAAUAGCUUUCCCAAACAGUACUUCCCCUGGAAUUAAAACAGGAAAUACAAUUUAUGUUCAACAGAGGAUUGAGCAUCA
B3: 176794798_176794918_1371_3pUTR_ENSG00000144320_ENST00000272748|human|control|control (ssRNA)
RNA: GGGAGUUCUACAGUCCGACGAUCUCUCUUGUUUCUCCUCUGGUUCCUCUGAGUCAGAUGCUUUUUCAAUCACUUGGUUUGUCUGUUCUGUAGCUGGUAUUUUGUCAUCUGUCUGCUCUGUAUUAUCAUCAAGAACAUCGUGUUCAACAGAGGAUUGAGCAUCA
B4: chr17:57724971:57724972:+_ENSG00000141367_ENST00000269122|hu_mus|FALSE|FALSE (ssRNA)
RNA: GGGAGUUCUACAGUCCGACGAUCCUGUGCAGAUAUGCCAGUGAGAAGCAACCAUUUCUGCUUUGCAUCUGUACGGUAAUUGAUGAUCUGGCAUCCUGCGAGGCUAGAAUGACGAUCAAACAUUUUCACUGGCUGAGACUCUCCCAACAGAGGAUUGAGCAUCA
B5: chr7:107790313:107790314:-_ENSG00000091129_ENST00000351718|hu_mus|FALSE|FALSE (ssRNA)
RNA: GGGAGUUCUACAGUCCGACGAUCAACAUUCUUUCUACCCAUAUGUCCGUAGUAUGAGAGGGAUGACAGGUGUUCAGGAAAACCAUUCCAGAGAGAUUAGACAUUGGCACAGAGCUUAAAGACUUAAACAAAGGAGUUCAUUGCCAACAGAGGAUUGAGCAUCA
B6: chr5:145543945:145543946:-_ENSG00000133706_ENST00000545646|hu_hu|hu_hu_hu_mus_True|38_58 (ssRNA)
RNA: GGGAGUUCUACAGUCCGACGAUCCUGAACGGCCAGUGGUGGGAAAUAAUCAAGCCAGUGCUCUGCUUCAGAAAACUUUACUAUCUCGUCAUCAGAGAGGCCAAGGGAUUUCAUAAUGUCCCACUGGUACUUAGAAGAUCCUGCCAACAGAGGAUUGAGCAUCA
B7: chr14:90870812:90870813:+_ENSG00000198668_ENST00000553542|hu_hu|motif|central (ssRNA)
RNA: GGGAGUUCUACAGUCCGACGAUCAUCAAUAUCUGCUUCUCUGAUCAUUUCAUCUACUUCUUCAUCUGUUAGUUUUUCUCCGGAGUUUGUCAUGACGUGACGUAGUUCUGCUGCACUGAUAUAACCAUUGCCAUCCUUGUCAAACAACAGAGGAUUGAGCAUCA
B8: chr5:128440902:128440903:+_ENSG00000066583_ENST00000173527|hu_mus|hu_hu_hu_mus_True|1_108 (ssRNA)
RNA: GGGAGUUCUACAGUCCGACGAUCUUGAACCGUGCUCCCAAGUCCUUUGGGGUAUUGUUCCGUUAUGAUAACUGGAAUCCCUAAGAUCCGAGCUCCUUGCAACAGUCUCUGUCCCACACUAAUGAUGUCCCCAAAGUACUUGAUCAACAGAGGAUUGAGCAUCA
B9: chr14:55655841:55655842:-_ENSG00000126787_ENST00000247191|hu_mus|motif|central (ssRNA)
RNA: GGGAGUUCUACAGUCCGACGAUCCACCCUGUGUCUGUUCUCCUUCUGAGACAGAGACUUUCUAUGAGCCAAGUUGGUUCGGACCAUCUCAGUGCUCGAGUCUUUCCGAAACCGACUGGCAAAACGUGACACCAGCAUCCUGAACAACAGAGGAUUGAGCAUCA
B10: chr1:163112212:163112213:-_ENSG00000143248_ENST00000313961|hu_hu|hu_hu_hu_mus_False|18_48 (ssRNA)
RNA: GGGAGUUCUACAGUCCGACGAUCUUUUAUUAUCAGUAAGAGUGAGUUACAUACUAGGCAAAGUAUUGGAUACAAUAAUCAGGAAACAAACACAAUUGGUCCAGAAUUUAAAACUUUUGGGAUAAAUUGCUGGCACAGGACUUACAACAGAGGAUUGAGCAUCA
B11: 88053082_88053202_5199_CDS_ENSMUSG00000038368_ENSMUST00000097992|mouse|control|control (ssRNA)
RNA: GGGAGUUCUACAGUCCGACGAUCGAGAACCUCUUGCACAGUGACUCUAUGCAUGGGACUCCUGCCAAGCAAGGCUGCUGCUGGCCCACCAGGGCCAUUCUGCUGGUGCCAUGGCAACCAACUGGCACUAAGGCCAAGGAGAAGCAACAGAGGAUUGAGCAUCA
B12: 56458565_56458685_4900_CDS_ENSG00000151914_ENST00000244364|human|control|control (ssRNA)
RNA: GGGAGUUCUACAGUCCGACGAUCAGAUUUGGCAGCUUCCAACACUCUGUUUCCAGAAAUUGUGAUGUAUCUCAAGUCACCUUUGUGAGAAAUAACGUCUUCUGAGAAACUCUUCUGCCUCUUCAAUUUGGUCAUUAAACCAUUCAACAGAGGAUUGAGCAUCA
B13: chrX:98862621:98862622:+_ENSMUSG00000034160_ENSMUST00000044475|mus_hu|mus_mus_mus_hu_False|18_38 (ssRNA)
RNA: GGGAGUUCUACAGUCCGACGAUCCUGCAUCUCCUUUAGAGUGUUUCCCAUAUUAGAGUAGGCAUCAGCAAAGGUAGGACUGAUUCGAAUAGCCUCCUUAUAGUGCAUCAGAGCUUCCUGCAGCUUGCCCUGCUGCUGCAGUACCAACAGAGGAUUGAGCAUCA
B14: 76963365_76984073_229_5pUTR_ENSMUSG00000033565_ENSMUST00000166610|mouse|control|control (ssRNA)
RNA: GGGAGUUCUACAGUCCGACGAUCGUUACCCUGAGUUACCAUUUUCUUUUUCUCCAUAAACCAGAAGAAGCAGAUGAUAACCAGUUGGAAGCCGCCGUAGCGGGGCACACCUCUGUGGCUCUCUGCCACCCCGUCCCCAGCUAGCAACAGAGGAUUGAGCAUCA
B15: chr11:46405157:46405158:+_ENSG00000110492_ENST00000395566|hu_hu|hu_hu_hu_mus_False|68_88 (ssRNA)
RNA: GGGAGUUCUACAGUCCGACGAUCCCCUCCCCACUUUGGGCACUUGGUGAGAGGGACAGAGGACAGGAUGAUUGAUUAGAGCUGACAGGAAGACAAAAGGCACUGGUGGGUUAUAUCUUGGGCCUGUGGGAGAGGAGGGCUCCGCAACAGAGGAUUGAGCAUCA
B16: chr5:5249095:5249096:-_ENSMUSG00000028926_ENSMUST00000030763|mus_mus|FALSE|FALSE (ssRNA)
RNA: GGGAGUUCUACAGUCCGACGAUCUUUAAAGUUAAUGCAUGCAUUGUUCUCAGAAUGGACCCUUUUGACUUGGUUGGCUGGUUUCUCAAAUGGGUCAAAAGUGCUCUGCGUCCUCUGAACCCUGACUUUCUUGUCUUCAGGAAUCAACAGAGGAUUGAGCAUCA
B17: chr2:198351390:198351391:-_ENSG00000144381_ENST00000345042|hu_hu|hu_hu_hu_mus_False|1_1 (ssRNA)
RNA: GGGAGUUCUACAGUCCGACGAUCUCAUUCCCACCCUCCACAGAAAGGCUGCUUCUGAACUCUCAUGUGGUGACACAGCGCUACAGUCCUGAUGCUCACAGAACAGUAGAGAUGCCUCAGUGAUUUAAGUUGAAAGCAGCAGUACAACAGAGGAUUGAGCAUCA
B18: 28713107_28714254_1622_CDS_ENSMUSG00000048271_ENSMUST00000114884|mouse|control|control (ssRNA)
RNA: GGGAGUUCUACAGUCCGACGAUCAGGCGGCGGUGGAGGAGGACUUCGCUGUUCCAAAAAAAGAUGACUGGGGAAUCUUGGUUCACCUGAAACUCCUAAGAAGAAAGGGUCUCGUUCCUGAGGUGGGGGUGGGGCUCUCCACUGCAACAGAGGAUUGAGCAUCA
B19: 10871691_10871811_498_CDS_ENSMUSG00000090112_ENSMUST00000044053|mouse|control|control (ssRNA)
RNA: GGGAGUUCUACAGUCCGACGAUCUAAACUCUCUUUGGGGAGAAGCUGAAGAGCAAAAUCUCCCAGAAAUGCUUUCCAAGAAUUAUCCACACGAUAGGGAGAAACUGUAACAUUCAAAGUCACAGACAAACGGGUCUCUUCCUCCAACAGAGGAUUGAGCAUCA
B20: chr11:100577090:100577091:-_ENSMUSG00000019173_ENSMUST00000107364|mus_mus|FALSE|FALSE (ssRNA)
RNA: GGGAGUUCUACAGUCCGACGAUCAAAGGGUGACUGCUCCAAGCCCUGUCCCCACGGAUGAGGAGCACAGGAGCAUGGCUACUACCAGCAAAGGGCAAGUGGGGGAGCGGGAGAAAGGGACCUGGGAAGAGCAGAAGAUCAUAUCAACAGAGGAUUGAGCAUCA
B21: 94012485_94012977_1247_3pUTR_ENSG00000137942_ENST00000370253|human|control|control (ssRNA)
RNA: GGGAGUUCUACAGUCCGACGAUCAGAUGAUUUAUGUCACUGCUAUGUCUUCUGUCUCCUCUCCCACCUGUUUUGCCUUCGACUUCAGAGAGCCAAGCCUCAUUCUUAUGGAUUUCCAUUCGUAGGCGGUCAAUGUUAUUCAUGCAACAGAGGAUUGAGCAUCA
B22: chr20:33097842:33097843:+_ENSG00000078747_ENST00000374864|hu_hu|FALSE|FALSE (ssRNA)
RNA: GGGAGUUCUACAGUCCGACGAUCAAAAAUAUUAAAUAGCCAAGCCCUAUAGAACUAGGGCCAGGGCUACUUCAAAUAUAACUAUUCUGUAUUUUAAAAAUAUAGGGCAGAAAGCCUUUUGGGUGAUAUUUAUAUAUUUUCACACAACAGAGGAUUGAGCAUCA

Some of the results follow.

In the test the target is T1, UNK ZnF1-3 (human, UniProt Q9C0B0 31-174).
T1 sequence: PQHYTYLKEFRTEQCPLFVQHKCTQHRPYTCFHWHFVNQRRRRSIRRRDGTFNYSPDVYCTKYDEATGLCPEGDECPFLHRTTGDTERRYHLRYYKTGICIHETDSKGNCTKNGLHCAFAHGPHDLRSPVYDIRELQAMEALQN
Kind of test: nsRBNS (natural sequence RNA bind-n-seq); RBNS binding buffer (assumed for nsRBNS): 25 mM Tris pH 7.5, 150 mM KCl, 3 mM MgCl2, 0.01% Triton X-100, 500 ug/ml BSA, 20 U/ml SUPERase-In, 4 C; UNK is unkempt and MSI1 is Musashi-1; names of the RNAs are library labels; protein concentration not given here; high values mean tight binding.
As for B1, the binding signal was 1.3 enrichment R.

B2 registered a binding signal of 1.68 enrichment R.

In the case of B3, the binding signal turned out to be 0.345 enrichment R.

In the case of B4, the binding signal was 0.927 enrichment R.

As for B5, the binding signal was 2.09 enrichment R.

In turn, B6 showed a binding signal of 1.07 enrichment R.

For B7, the binding signal was 0.438 enrichment R.

B8 registered a binding signal of 0.586 enrichment R.

Consider B9, for which the binding signal stood at 0.73 enrichment R.

In turn, B10 showed a binding signal of 1.5 enrichment R.

The molecule B11 returned a binding signal of 0.928 enrichment R.

Turning to B12, the binding signal came out at 0.705 enrichment R.

Molecule B13 gave a binding signal of 0.992 enrichment R.

Consider B14, for which the binding signal amounted to 0.461 enrichment R.

Take B15: the binding signal worked out at 2.23 enrichment R.

Regarding B16, the binding signal was found to be 0.505 enrichment R.

With B17, the binding signal was determined as 1.21 enrichment R.

The molecule B18 had a binding signal of 1.59 enrichment R.

As to B19, the binding signal is 0.815 enrichment R.

B20 had a binding signal of 1.4 enrichment R.

B21 yielded a binding signal of 0.451 enrichment R.

B22: the binding signal amounted to 0.905 enrichment R.
